From article PMC5131612 (Journal of Structural Biology, 2016)

Target: UAF1FL, UAF1 (9-677) (human, UniProt Q8TAF3 9-677)
Test: SPR

Binder	binding result
USP12_(E190K) (enzyme) not shown	binds
USP12 R217E (enzyme) not shown	binds
USP12 R285D (enzyme) not shown	binds
USP12 F287A (enzyme) not shown	binds
